# The campaign covered roughly 45,000 compounds. About 200 (0.44%) were called active. Another 7% or so got no clear call; they are omitted. Calls come from the whole dose curve; as a rule, active = well fitted activation curve with a large enough effect; inconclusive = small, poorly fitted or top-dose-only effect; inactive = no such curve, though single readings can be large or run the other way. This is one part of the list.
# Test: qHTS of TDP-43 Inhibitors: NCGC Sytravon Library Screen; note: 0% is about no effect; nearly all actives have a fitted effect of over 55% in size
# Conditions: yeast TDP-43 toxicity rescue, BacTiter-Glo growth, 24 h; series mostly up to 46.1 µM; growth rescue (activation): at the top concentration
# Method in brief: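 TDP-43-expressing yeast, pregrown in raffinose, seeded at OD600 0.02 in galactose medium with compound for 24 hr at 30 deg C. Growth read by BacTiter-Glo luminescence, so rescue of toxicity appears as activation.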
row,SMILES,growth rescue (activation)
1,O=C(O)CCNc1nc(C(F)(F)F)nc2ccccc12,inactive: 4.98%
2,COCCN(C(=S)Nc1cccc(OC)c1)C1CCN(C(C)=O)CC1,inactive: 0.0992%
3,O=C(/C=C\c1ccc(-c2cccc([N+](=O)[O-])c2)o1)N1CCOCC1,inactive: 22.6%
4,O=C(c1ccc(Cl)cc1)N(Cc1cccs1)C1CCS(=O)(=O)C1 (configuration not stated),inactive: 6.46%
5,CCCCNC(C(=O)Nc1ccc([N+](=O)[O-])cc1Br)c1ccccc1 (configuration not stated),inactive: 0.992%
6,CC(NC(=O)/C(C#N)=C/c1ccc(C(=O)O)cc1)c1ccccc1 (configuration not stated),inactive: 1.23%
7,Cc1ccc(NC(=S)N2CCCC(O)C2)cc1 (configuration not stated),inactive: -0.129%
8,O=C(NC1CCCCCCC1)C1c2ccccc2C(=O)N1Cc1cccs1 (configuration not stated),inactive: -14.6%
9,COc1ccc(N2CCN(c3nc4ccccn4c(=O)c3C=O)CC2)cc1,inactive: 20.7%
10,COC(=O)c1sc(NC(=O)CSc2nnc(Cn3nnc4ccccc43)n2C)nc1C,inactive: 5.24%
11,CCCSc1ncc(Cl)c(C(=O)Nc2sc3c(c2C(=O)NCCOC)CCCC3)n1,inactive: 9.44%
12,CC(C)(C)c1ccc2c(c1)OC(C(=O)N/N=C/c1ccc([N+](=O)[O-])o1)CO2 (configuration not stated),inactive: 14.9%
13,COc1ccc(NC(=O)CC2(Cc3ccccc3)CCOC(C)(C)C2)cc1 (configuration not stated),inactive: 4.21%
14,Cc1cc(C(=O)N/N=C/c2cc(Br)cc([N+](=O)[O-])c2O)c2ccccc2n1,inactive: 14.3%
15,C/C(=N\NC(=O)CCn1nnc2ccccc21)c1cccs1,inactive: 2.47%
16,CC(=O)Nc1ccc(NC(=O)COC(=O)c2ccc(S(=O)(=O)NCc3ccco3)cc2)cc1,inactive: 1.33%
17,Cc1cc(NC(=O)COC(=O)[C@H](Cc2ccccc2)NC(=O)c2ccco2)no1,inactive: -8.81%
18,Cc1ccc(CNS(=O)(=O)c2ccc3c(c2)n(C)c(=O)n3C)cc1,inactive: -2.3%
19,COc1ccc(CNC(=O)CN(C)Cc2ccc(SC)cc2)cc1,inactive: 1.97%
20,CC(=O)c1c(C)n(-c2ccc(Cl)cc2)c2ccc(O)cc12,inactive: 6.58%
21,NC(=O)C1(N2CCCCC2)CCN(C(=S)NC2CCCC2)CC1,inactive: -12.1%
22,CCOc1ccc(C=NNc2ccc(S(=O)(=O)Nc3ccccc3C(=O)O)cc2[N+](=O)[O-])cc1OC,inactive: 12%
23,O=C(Cn1nnc(-c2ccc(F)cc2)n1)OCC(=O)c1ccccc1,inactive: 4.12%

row,SMILES,growth rescue (activation)
1,CCN(c1ccccc1)S(=O)(=O)c1cccc(C(=O)NCC(c2ccco2)N2CCCCC2)c1 (configuration not stated),inactive: -9.94%
2,Nc1[nH]n(-c2ccccc2)c(=O)c1N=Nc1ccccc1,inactive: -1.13%
3,CC(C)(C)c1ccc(C(=O)N2CCC2(C)C(=O)NS(=O)(=O)c2ccc(C#N)cc2)cc1 (configuration not stated),inactive: -20.6%
4,OC(c1ccccc1)c1nc(/C=C/c2ccc(C(F)(F)F)cc2)cs1 (configuration not stated),inactive: 17.4%
5,CC(=O)N1CCc2cc(N=NC3=C(O)CCCC3=O)ccc21,inactive: 1.95%
6,S=C(Nc1cccc(Cl)c1)N1CCN(Cc2ccccc2)CC1,inactive: 8.27%
7,Cc1nc(NCCc2ccc(O)cc2)c2nnn(Cc3ccccc3)c2n1,inactive: 14.9%
8,CN1CCN(C(=O)/C(=C\c2cccs2)NC(=O)c2ccco2)CC1,inactive: 4.93%
9,CC(C)c1ccc(S(=O)(=O)/N=C2/C=C(Sc3ncn[nH]3)C(=O)c3ccccc32)cc1,inactive: -46.7%
10,CCOC(=O)c1c(NCC2CCCO2)c2ccccc2[nH]c1=O (configuration not stated),inactive: 9.34%
11,Cc1cccc(C(C(=O)NC2CCCCC2)N(C(=O)c2csnn2)C2CC2)c1 (configuration not stated),inactive: -9.71%
12,COc1ccccc1N1CCN(C(=O)c2cccc(C(=O)N3CCN(c4ccccc4OC)CC3)c2)CC1,inactive: 3.96%
13,O=C(NCc1cccs1)C1CCCN1C(=O)Nc1ccccc1[N+](=O)[O-] (configuration not stated),inactive: -0.254%
14,Cc1ccc(CN2C(=O)CCC2C(=O)N2CCN(c3ccc(F)cc3)CC2)cc1 (configuration not stated),inactive: 7.52%
15,COc1ccccc1-c1cc(C(F)(F)F)c(C#N)c(=O)[nH]1,inactive: -2.22%
16,CCOC(=O)COc1ccc2c(C#N)c3ccccn3c2c1,inactive: 6.61%
17,Cc1ccc(S(=O)(=O)N2CCCCC2)cc1NC(=O)COC(=O)c1cc[n+]([O-])cc1,inactive: 10.1%
18,C=CCc1cccc(/C=N/NC(=O)CCC(=O)Nc2ccc(F)cc2)c1O,inactive: -9.73%
19,COc1ccc(C=Nc2ccc3[nH]ncc3c2)c(O)c1,inactive: -5.83%
20,COc1ccc(NC(=O)Cc2nnc(SCC(=O)c3ccc(F)cc3)n2C)cc1,inactive: 7.61%
21,COC(=O)/C(=C/c1ccccc1)NC(=O)c1ccco1,inactive: -0.436%
22,COc1cc(/C=C(/Sc2nnc(-c3ccc(F)cc3)o2)C(=O)O)ccc1OC(F)F,inactive: 0.28%
23,CN(C)c1ccc(CN2CCC(C(N)=O)CC2)cc1,inactive: -5.6%

row,SMILES,growth rescue (activation)
1,Cc1nc(N2CCN(c3ccccc3)CC2)[nH]c(=O)c1CCC(C)C,inactive: -12.7%
2,COCCCn1c(SCC(=O)N2CCOCC2)nc2ccccc2c1=O,inactive: -8.39%
3,c1ccc(CN2CCN(c3nc4ccccc4c4ccccc34)CC2)cc1,inactive: -9.83%
4,O=C(NCCCN1CCC(Cc2ccccc2)CC1)C1CCN(S(=O)(=O)N2CCC3(CC2)OCCO3)CC1,inactive: 0.792%
5,OCCN(Cc1ccccc1)C(=S)NC1CCCCC1,inactive: 16.7%
6,Cc1ccc(C2c3c(oc4ccccc4c3=O)C(=O)N2c2ccc(C)cn2)cc1 (configuration not stated),inactive: 12.1%
7,CCC(=O)Nc1nc2nc(-c3ccccc3)cc(=O)n2[nH]1,inactive: 19%
8,CC(CNC(=O)c1ccc2c(c1)OCO2)c1ccc([N+](=O)[O-])cc1 (configuration not stated),inactive: 7.01%
9,CCCNC(=O)C1(C)CCN(C(=O)c2cc(C)n(C(C)(C)C)n2)C1 (configuration not stated),inactive: 1.02%
10,CCCn1c(-c2ccc(C(=O)OC)cc2)nc2c1c(=O)[nH]c(=O)n2Cc1ccccc1,inactive: 8.37%
11,Cc1ccc(COc2ccc(CNCCCN3CCCCCC3=O)cc2)cc1,inactive: -3.24%
12,Nc1nc(NCCCN2CCOCC2)nc(Nc2cccc(Cl)c2)c1[N+](=O)[O-],inactive: -12.4%
13,CC1CCCC(C)N1NC(=S)Nc1ccc(OC(F)F)cc1 (configuration not stated),inactive: 14.1%
14,O=S(=O)(c1cccc2nsnc12)N1CCNCC1,inactive: 15.2%
15,COc1ccc(NS(=O)(=O)c2ccc(NC(=O)Cc3cccs3)cc2)cc1,inactive: -14.3%
16,COc1ccc(CCN(C)S(=O)(=O)c2ccc(Cl)nc2)cc1OC,inactive: 0.513%
17,Cc1ccc2c(C)cc[n+](CCCS(=O)(=O)[O-])c2c1,inactive: 6.58%
18,CCS(=O)(=O)Nc1cccc(C2=NN(C(C)=O)C(c3cccs3)C2)c1 (configuration not stated),inactive: 1.32%
19,COCCN=c1scc(-c2ccc3c(c2)NC(=O)CO3)n1/N=C(\C)c1ccc(O)cc1,inactive: 2.57%
20,COc1ccc(/C=C/C(=O)C2(O)CCCCC2)cc1,inactive: -16.3%
21,COc1ccc(-c2noc(CSc3nc(N)c(-c4ccccc4)c(=O)[nH]3)n2)cc1OC,inactive: 5.91%
